PubChem BioAssay AID588407 (The Scripps Research Institute Molecular Screening Center, 2011)
Some entries of the source have several records that differ or are many. This list holds those alone. How the calls were made is not given here. The source may hold further records. Values that stand side by side are repeated measurements across runs, samples, wells, individuals or studies. Marks in square brackets tell the records apart. Letters count within one entry.

Biological target: Mu-type opioid receptor (Homo sapiens) + Delta-type opioid receptor (Homo sapiens) (UniProt P35372+P41143)
Experiment: OPRM1-OPRD1 heterodimer agonist potency – cell-based, luminescence, dose response (AID 588407);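 further: potency of agonists raising the heterodimer signal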
Conditions: cells, MOR-DOR heterodimerization

UniProt P35372, sequence (P35372 whole entry, looked up): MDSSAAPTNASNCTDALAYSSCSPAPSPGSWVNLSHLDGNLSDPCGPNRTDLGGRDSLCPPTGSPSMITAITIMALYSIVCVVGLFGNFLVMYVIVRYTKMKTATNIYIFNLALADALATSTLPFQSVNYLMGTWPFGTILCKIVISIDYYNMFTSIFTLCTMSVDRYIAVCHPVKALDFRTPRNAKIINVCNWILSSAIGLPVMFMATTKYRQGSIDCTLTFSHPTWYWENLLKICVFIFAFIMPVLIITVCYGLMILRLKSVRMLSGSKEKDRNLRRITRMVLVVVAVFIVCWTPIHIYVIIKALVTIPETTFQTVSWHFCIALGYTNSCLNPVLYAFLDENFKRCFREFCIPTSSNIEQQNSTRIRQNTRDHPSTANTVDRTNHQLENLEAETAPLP
UniProt P35372, sequence (P41143 whole entry, looked up): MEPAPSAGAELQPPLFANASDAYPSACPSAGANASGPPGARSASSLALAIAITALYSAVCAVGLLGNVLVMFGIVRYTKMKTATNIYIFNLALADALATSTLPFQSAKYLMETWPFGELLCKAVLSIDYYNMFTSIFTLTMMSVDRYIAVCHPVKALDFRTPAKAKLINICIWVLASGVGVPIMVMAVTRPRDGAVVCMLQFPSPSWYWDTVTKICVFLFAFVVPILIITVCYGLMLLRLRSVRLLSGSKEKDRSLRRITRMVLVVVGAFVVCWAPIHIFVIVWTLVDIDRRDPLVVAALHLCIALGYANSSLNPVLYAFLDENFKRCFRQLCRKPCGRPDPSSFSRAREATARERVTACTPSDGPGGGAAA

SMILES: CCC(COC(=O)c1cc(OC)c(OC)c(OC)c1)(c1ccccc1)N(C)C (stereo unspecified)
- EC50: inactive [sample A] and 9.5 µM [sample B]
